# Results from the supplement of paper PMC8728848.
# The list shows a part of the results.
# B1: LecB PA7 (Pseudomonas aeruginosa) (protein)
# chain: MATQGVFTLPANTRFGVTAFANSSATQTVKVLVNNETAATFTGQSTNNAVIGSQVLNSGGGGKVQIQVSVNGRSSDLVSAQVILANELNVALVGSEDSTDNDYNDAVVVINWPLG
# Experiments:
# Assay in all cases: glycan array binding signal (z-score within array); higher = stronger binding
# Conditions in all cases: glycan notation: IUPAC condensed, linker removed
# [1] = biological target: Neu5Ac(a2-8)Neu5Ac
# Outline: (§1)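 The Consortium for Functional Glycomics database supplied 3228 glycan arrays, of which those lacking an available protein sequence were dropped. The binding signal, a within-array Z-score, was averaged across arrays of the same protein sequence and across linkers. Negative scores can be read as non-binding.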
# [2] = biological target: Neu5Ac(a2-8)Neu5Ac(a2-3)Gal(b1-3)GalNAc(b1-4)[Neu5Ac(a2-3)]Gal(b1-4)Glc
# Outline: as §1
# [3] = biological target: Neu5Ac(a2-8)Neu5Ac(a2-3)Gal(b1-3)GalNAc(b1-4)[Neu5Ac(a2-8)Neu5Ac(a2-3)]Gal(b1-4)Glc
# Outline: as §1
# [4] = biological target: Neu5Ac(a2-8)Neu5Ac(a2-3)Gal(b1-4)Glc
# Outline: as §1
# [5] = biological target: Neu5Ac(a2-8)Neu5Ac(a2-3)Gal(b1-4)GlcNAc
# Outline: as §1
# [6] = biological target: Neu5Ac(a2-8)Neu5Ac(a2-3)[Gal(b1-3)GalNAc(b1-4)]Gal(b1-4)Glc
# Outline: as §1
# [7] = biological target: Neu5Ac(a2-8)Neu5Ac(a2-3)[GalNAc(b1-4)]Gal(b1-4)Glc
# Outline: as §1
# [8] = biological target: Neu5Ac(a2-8)Neu5Ac(a2-8)Neu5Ac
# Outline: as §1
# [9] = biological target: Neu5Ac(a2-8)Neu5Ac(a2-8)Neu5Ac(a2-3)Gal(b1-4)Glc
# Outline: as §1
# [10] = biological target: Neu5Ac(a2-8)Neu5Ac(a2-8)Neu5Ac(a2-3)[Gal(b1-3)GalNAc(b1-4)]Gal(b1-4)Glc
# Outline: as §1
# [11] = biological target: Neu5Ac(a2-8)Neu5Ac(a2-8)Neu5Ac(a2-3)[GalNAc(b1-4)]Gal(b1-4)Glc
# Outline: as §1
# [12] = biological target: Neu5Ac(a2-8)Neu5Ac(a2-8)Neu5Ac(a2-8)Neu5Ac(a2-3)[GalNAc(b1-4)]Gal(b1-4)Glc
# Outline: as §1
# [13] = biological target: Neu5Ac(a2-8)Neu5Gc(a2-3)Gal(b1-4)GlcNAc
# Outline: as §1
# [14] = biological target: Neu5Ac(b2-6)Gal(b1-4)GlcNAc
# Outline: as §1
# [15] = biological target: Neu5Ac(b2-6)GalNAc
# Outline: as §1
# [16] = biological target: Neu5Ac9Ac(a2-3)Gal(b1-3)GlcNAc
# Outline: as §1
# [17] = biological target: Neu5Ac9Ac(a2-3)Gal(b1-4)GlcNAc
# Outline: as §1
# [18] = biological target: Neu5Ac9Ac(a2-6)Gal(b1-4)GlcNAc
# Outline: as §1
# [19] = biological target: Neu5Gc(a2-3)Gal(b1-3)GlcNAc
# Outline: as §1
# [20] = biological target: Neu5Gc(a2-3)Gal(b1-3)[Fuc(a1-4)]GlcNAc
# Outline: as §1
# [21] = biological target: Neu5Gc(a2-3)Gal(b1-4)Glc
# Outline: as §1
# [22] = biological target: Neu5Gc(a2-3)Gal(b1-4)GlcNAc
# Outline: as §1
# [23] = biological target: Neu5Gc(a2-3)Gal(b1-4)GlcNAc(b1-3)Gal(b1-4)GlcNAc(b1-2)Man(a1-3)[Neu5Gc(a2-3)Gal(b1-4)GlcNAc(b1-3)Gal(b1-4)GlcNAc(b1-2)Man(a1-6)]Man(b1-4)GlcNAc(b1-4)GlcNAc
# Outline: as §1
# [24] = biological target: Neu5Gc(a2-3)Gal(b1-4)[Fuc(a1-3)]GlcNAc
# Outline: as §1
# [25] = biological target: Neu5Gc(a2-6)Gal(b1-4)GlcNAc
# Outline: as §1
# [26] = biological target: Neu5Gc(a2-6)GalNAc
# Outline: as §1
# [27] = biological target: Neu5Gc(a2-8)Neu5Ac(a2-3)Gal(b1-4)GlcNAc
# Outline: as §1
# [28] = biological target: Neu5Gc(a2-8)Neu5Gc(a2-3)Gal(b1-4)GlcNAc
# Outline: as §1
# [29] = biological target: Neu5Gc(a2-8)Neu5Gc(a2-3)Gal(b1-4)GlcNAc(b1-3)Gal(b1-4)GlcNAc
# Outline: as §1
# [30] = biological target: Neu5Gc(a2-8)Neu5Gc(a2-6)Gal(b1-4)GlcNAc
# Outline: as §1
# [31] = biological target: Neu5Gc(b2-6)Gal(b1-4)GlcNAc
# Outline: as §1
binder,measurement,setting,value
B1,glycan array binding signal (z-score),[1],-0.513
same,glycan array binding signal (z-score),[2],-0.51
same,glycan array binding signal (z-score),[3],-0.508
same,glycan array binding signal (z-score),[4],-0.512
same,glycan array binding signal (z-score),[5],-0.511
same,glycan array binding signal (z-score),[6],-0.508
same,glycan array binding signal (z-score),[7],-0.483
same,glycan array binding signal (z-score),[8],-0.505
same,glycan array binding signal (z-score),[9],-0.481
same,glycan array binding signal (z-score),[10],-0.509
same,glycan array binding signal (z-score),[11],-0.497
same,glycan array binding signal (z-score),[12],-0.491
same,glycan array binding signal (z-score),[13],-0.516
same,glycan array binding signal (z-score),[14],-0.51
same,glycan array binding signal (z-score),[15],-0.503
same,glycan array binding signal (z-score),[16],-0.517
same,glycan array binding signal (z-score),[17],-0.503
same,glycan array binding signal (z-score),[18],-0.502
same,glycan array binding signal (z-score),[19],-0.501
same,glycan array binding signal (z-score),[20],2.03
same,glycan array binding signal (z-score),[21],-0.449
same,glycan array binding signal (z-score),[22],-0.497
same,glycan array binding signal (z-score),[23],-0.49
same,glycan array binding signal (z-score),[24],0.247
same,glycan array binding signal (z-score),[25],-0.505
same,glycan array binding signal (z-score),[26],-0.508
same,glycan array binding signal (z-score),[27],-0.513
same,glycan array binding signal (z-score),[28],-0.504
same,glycan array binding signal (z-score),[29],-0.511
same,glycan array binding signal (z-score),[30],-0.507
same,glycan array binding signal (z-score),[31],-0.51
